# Source: the supplement of paper PMC4604168 (melanoma cell lines)
# The list shows a part of the results. Single values are uncertain, as repeats are few or missing.
# Tested on: IST-MEL1
# Assay: cell count relative to DMSO control; melanoma cells; higher = more viable cells
# Details: library dose: low library concentration; 72 h
# 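Further: cell number obtained by counting DAPI-stained nuclei in high-throughput microscope images with image analysis software, screen run in 1,536-well plates.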
row,Structure (SMILES),cell count [%]
1,"C[C@]12O[C@H](C[C@]1(O)CO)n1c3ccccc3c3c4c(c5c6ccccc6n2c5c31)CNC4=O [Lestaurtinib] + Cc1cc(Nc2cc(N3CCN(C)CC3)nc(/C=C/c3ccccc3)n2)n[nH]1 [ENMD2076] (first compound 0.004 µM, partner dose 0.04 µM)",96.7
2,"C[C@]12O[C@H](C[C@]1(O)CO)n1c3ccccc3c3c4c(c5c6ccccc6n2c5c31)CNC4=O [Lestaurtinib] + C#Cc1cccc(Nc2ncnc3cc(OCCOC)c(OCCOC)cc23)c1 [erlotinib] (first compound 0.004 µM, partner dose 0.8 µM)",99.5
3,"C[C@]12O[C@H](C[C@]1(O)CO)n1c3ccccc3c3c4c(c5c6ccccc6n2c5c31)CNC4=O [Lestaurtinib] + Nc1ncn([C@H]2C[C@H](O)[C@@H](CO)O2)c(=O)n1 [decitabine] (first compound 0.004 µM, partner dose 0.1 µM)",83.7
4,"C[C@]12O[C@H](C[C@]1(O)CO)n1c3ccccc3c3c4c(c5c6ccccc6n2c5c31)CNC4=O [Lestaurtinib] + COCC[n+]1c2c(n(Cc3cnccn3)c1C)C(=O)c1ccccc1C2=O [YM155] (first compound 0.004 µM, partner dose 0.0004 µM)",106
5,"C[As](C)SC[C@H](NC(=O)CC[C@H](N)C(=O)O)C(=O)NCC(=O)O [Darinaparsin] + COC(=O)c1sccc1S(=O)(=O)Nc1ccc(Nc2ccccc2)cc1OC [GSK0660] (first compound 0.4 µM, partner dose 1 µM)",101
6,"C[C@]12O[C@H](C[C@]1(O)CO)n1c3ccccc3c3c4c(c5c6ccccc6n2c5c31)CNC4=O [Lestaurtinib] + C[C@]1(c2nc3c(C(N)=O)cccc3[nH]2)CCCN1 [Veliparib] (first compound 0.004 µM, partner dose 1.4 µM)",110
7,"C[As](C)SC[C@H](NC(=O)CC[C@H](N)C(=O)O)C(=O)NCC(=O)O [Darinaparsin] + O=C(Oc1ccc([N+](=O)[O-])cc1)N1CCC(C(O)(c2ccc3c(c2)OCO3)c2ccc3c(c2)OCO3)CC1 [JZL184] (first compound 0.4 µM, partner dose 1 µM)",97

# Tested on: LB2518-MEL
# Assay: as above
# Details: library dose: low library concentration; 72 h
row,Structure (SMILES),cell count [%]
1,"C[C@]12O[C@H](C[C@]1(O)CO)n1c3ccccc3c3c4c(c5c6ccccc6n2c5c31)CNC4=O [Lestaurtinib] + OCc1c[nH]c2ccccc12 [Indole-3-carbinol] (first compound 0.004 µM, partner dose 0.8 µM)",95.9
2,"C[C@]12O[C@H](C[C@]1(O)CO)n1c3ccccc3c3c4c(c5c6ccccc6n2c5c31)CNC4=O [Lestaurtinib] + CO[C@H]1C[C@@H]2CC[C@@H](C)[C@@](O)(O2)C(=O)C(=O)N2CCCC[C@H]2C(=O)O[C@H]([C@H](C)C[C@@H]2CC[C@@H](OCCO)[C@H](OC)C2)CC(=O)[C@H](C)/C=C(\C)[C@@H](O)[C@@H](OC)C(=O)[C@H](C)C[C@H](C)/C=C/C=C/C=C/1C [everolimus] (first compound 0.004 µM, partner dose 0.02 µM)",74.4
3,"C[C@]12O[C@H](C[C@]1(O)CO)n1c3ccccc3c3c4c(c5c6ccccc6n2c5c31)CNC4=O [Lestaurtinib] + Cn1c(=O)n(-c2ccc(C(C)(C)C#N)cc2)c2c3cc(-c4cnc5ccccc5c4)ccc3ncc21 [NVP-BEZ235] (first compound 0.004 µM, partner dose 0.004 µM)",102
4,"C[C@]12O[C@H](C[C@]1(O)CO)n1c3ccccc3c3c4c(c5c6ccccc6n2c5c31)CNC4=O [Lestaurtinib] + Nc1ccn([C@@H]2O[C@H](CO)[C@@H](O)C2(F)F)c(=O)n1 [gemcitabine] (first compound 0.004 µM, partner dose 0.0004 µM)",89.8
5,"Cn1cc(C2=C(c3cn(C4CCN(Cc5ccccn5)CC4)c4ccccc34)C(=O)NC2=O)c2ccccc21 [Enzastaurin] + CO[C@H]1C[C@@H]2CC[C@@H](C)[C@@](O)(O2)C(=O)C(=O)N2CCCC[C@H]2C(=O)O[C@H]([C@H](C)C[C@@H]2CC[C@@H](OCCO)[C@H](OC)C2)CC(=O)[C@H](C)/C=C(\C)[C@@H](O)[C@@H](OC)C(=O)[C@H](C)C[C@H](C)/C=C/C=C/C=C/1C [everolimus] (first compound 0.8 µM, partner dose 0.02 µM)",92.6
6,"C[C@]12O[C@H](C[C@]1(O)CO)n1c3ccccc3c3c4c(c5c6ccccc6n2c5c31)CNC4=O [Lestaurtinib] + Nc1cccc2c1CN(C1CCC(=O)NC1=O)C2=O [lenalidomide] (first compound 0.004 µM, partner dose 1 µM)",102
7,"C[C@]12O[C@H](C[C@]1(O)CO)n1c3ccccc3c3c4c(c5c6ccccc6n2c5c31)CNC4=O [Lestaurtinib] + CN(c1ncccc1CNc1nc(Nc2ccc3c(c2)CC(=O)N3)ncc1C(F)(F)F)S(C)(=O)=O [PF562271] (first compound 0.004 µM, partner dose 0.08 µM)",110
8,"C[C@]12O[C@H](C[C@]1(O)CO)n1c3ccccc3c3c4c(c5c6ccccc6n2c5c31)CNC4=O [Lestaurtinib] + CC(=O)O[C@@]12CO[C@@H]1C[C@H](O)[C@@]1(C)C(=O)[C@H](O)C3=C(C)[C@@H](OC(=O)[C@H](O)[C@@H](NC(=O)OC(C)(C)C)c4ccccc4)C[C@@](O)([C@@H](OC(=O)c4ccccc4)[C@H]21)C3(C)C [Docetaxel] (first compound 0.004 µM, partner dose 0.0001 µM)",82.2
9,"C[As](C)SC[C@H](NC(=O)CC[C@H](N)C(=O)O)C(=O)NCC(=O)O [Darinaparsin] + O=C(Nc1ccccc1)c1cc([N+](=O)[O-])ccc1Cl [GW9662] (first compound 0.4 µM, partner dose 2 µM)",111
10,"C[As](C)SC[C@H](NC(=O)CC[C@H](N)C(=O)O)C(=O)NCC(=O)O [Darinaparsin] + Cc1cc(SCc2sc(-c3ccc(C(F)(F)F)c(F)c3)nc2C)ccc1OCC(=O)O [GW0742] (first compound 0.4 µM, partner dose 2 µM)",110
11,"C[C@]12O[C@H](C[C@]1(O)CO)n1c3ccccc3c3c4c(c5c6ccccc6n2c5c31)CNC4=O [Lestaurtinib] + CCCS(=O)(=O)Nc1ccc(F)c(C(=O)c2c[nH]c3ncc(Cl)cc23)c1F [PLX4720] (first compound 0.004 µM, partner dose 0.08 µM)",120
12,"C[C@]12O[C@H](C[C@]1(O)CO)n1c3ccccc3c3c4c(c5c6ccccc6n2c5c31)CNC4=O [Lestaurtinib] + O=C(O)[C@@H]1[O][Sb](=[O])([O][Sb]2(=[O])[O][C@H]([C@H](O)CO)[C@H](O)[C@H](C(=O)O)[O]2)[O][C@H]([C@H](O)CO)[C@@H]1O [stibogluconate] (first compound 0.004 µM, partner dose 2 µM)",101
13,"C[C@]12O[C@H](C[C@]1(O)CO)n1c3ccccc3c3c4c(c5c6ccccc6n2c5c31)CNC4=O [Lestaurtinib] + O=C(O)c1ccc2c(c1)nc(Nc1cccc(Cl)c1)c1ccncc12 [CX4945] (first compound 0.004 µM, partner dose 0.4 µM)",93.1
14,"C[As](C)SC[C@H](NC(=O)CC[C@H](N)C(=O)O)C(=O)NCC(=O)O [Darinaparsin] + O=C1NC(=O)/C(=C/c2ccc(-c3ccc(F)cc3O)o2)S1 [AS252424] (first compound 0.4 µM, partner dose 1 µM)",90
15,"C[C@]12O[C@H](C[C@]1(O)CO)n1c3ccccc3c3c4c(c5c6ccccc6n2c5c31)CNC4=O [Lestaurtinib] + CC(C)C[C@H](NC(=O)[C@H](Cc1ccccc1)NC(=O)c1cnccn1)B(O)O [Bortezomib] (first compound 0.004 µM, partner dose 0.001 µM)",48.9
16,"C[C@]12O[C@H](C[C@]1(O)CO)n1c3ccccc3c3c4c(c5c6ccccc6n2c5c31)CNC4=O [Lestaurtinib] + N.N.[Cl][Pt][Cl] [cisplatin] (first compound 0.004 µM, partner dose 1.6 µM)",109
17,"C[C@]12O[C@H](C[C@]1(O)CO)n1c3ccccc3c3c4c(c5c6ccccc6n2c5c31)CNC4=O [Lestaurtinib] + NC1(c2ccc(-c3nc4ccn5c(=O)[nH]nc5c4cc3-c3ccccc3)cc2)CCC1 [MK2206] (first compound 0.004 µM, partner dose 0.4 µM)",75
18,"C[C@]12O[C@H](C[C@]1(O)CO)n1c3ccccc3c3c4c(c5c6ccccc6n2c5c31)CNC4=O [Lestaurtinib] + C[C@]1(O)C[C@@H](c2nc(-c3ccc4ccc(-c5ccccc5)nc4c3)c3c(N)nccn32)C1 [OSI906] (first compound 0.004 µM, partner dose 0.4 µM)",78.3
19,"C[C@]12O[C@H](C[C@]1(O)CO)n1c3ccccc3c3c4c(c5c6ccccc6n2c5c31)CNC4=O [Lestaurtinib] + C=C(c1ccc(C(=O)O)cc1)c1cc2c(cc1C)C(C)(C)CCC2(C)C [Bexarotene] (first compound 0.004 µM, partner dose 2 µM)",104
